# Screen size: about 310,000 compounds; about 2,200 (0.71%) showed an effect of 50% or more. The effect is printed as a negative number. The list shows a part of the results.
# Molecular target: human ether-à-go-go-related gene (hERG) potassium channel (human, UniProt Q12809)
# Experiment: primary screen, population patch clamp on CHO cells stably expressing hERG
# Chain of human ether-à-go-go-related gene (hERG) potassium channel (Q12809 whole entry, looked up): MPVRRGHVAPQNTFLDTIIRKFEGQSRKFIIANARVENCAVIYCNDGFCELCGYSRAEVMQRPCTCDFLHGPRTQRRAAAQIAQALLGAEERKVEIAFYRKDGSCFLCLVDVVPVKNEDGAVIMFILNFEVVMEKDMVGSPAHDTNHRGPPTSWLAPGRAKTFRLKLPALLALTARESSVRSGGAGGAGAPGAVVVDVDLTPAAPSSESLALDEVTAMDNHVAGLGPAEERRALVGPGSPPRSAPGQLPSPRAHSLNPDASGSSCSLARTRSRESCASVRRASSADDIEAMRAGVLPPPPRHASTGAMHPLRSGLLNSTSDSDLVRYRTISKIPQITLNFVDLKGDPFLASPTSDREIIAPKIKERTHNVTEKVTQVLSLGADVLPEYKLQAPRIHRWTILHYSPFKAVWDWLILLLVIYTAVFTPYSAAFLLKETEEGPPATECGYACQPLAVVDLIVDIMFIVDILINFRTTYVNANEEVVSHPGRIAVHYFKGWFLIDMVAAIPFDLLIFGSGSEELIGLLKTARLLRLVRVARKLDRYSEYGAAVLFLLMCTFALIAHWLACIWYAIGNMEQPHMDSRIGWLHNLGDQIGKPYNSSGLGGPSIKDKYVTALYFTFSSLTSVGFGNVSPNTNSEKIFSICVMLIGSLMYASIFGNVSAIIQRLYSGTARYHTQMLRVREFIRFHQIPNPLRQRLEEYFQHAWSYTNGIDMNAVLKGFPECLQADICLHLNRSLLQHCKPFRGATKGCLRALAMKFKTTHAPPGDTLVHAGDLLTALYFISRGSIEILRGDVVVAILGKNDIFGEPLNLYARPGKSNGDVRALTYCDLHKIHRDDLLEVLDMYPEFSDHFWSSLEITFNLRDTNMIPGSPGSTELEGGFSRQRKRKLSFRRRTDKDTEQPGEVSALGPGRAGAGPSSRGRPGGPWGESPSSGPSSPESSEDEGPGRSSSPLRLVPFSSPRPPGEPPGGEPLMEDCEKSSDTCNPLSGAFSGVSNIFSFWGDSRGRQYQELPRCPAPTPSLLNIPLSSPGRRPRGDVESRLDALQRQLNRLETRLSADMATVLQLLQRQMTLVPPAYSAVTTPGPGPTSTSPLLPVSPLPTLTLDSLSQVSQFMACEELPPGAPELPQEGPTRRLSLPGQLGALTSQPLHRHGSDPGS
row,SMILES,"hERG current change (%, negative = inhibition) at 1uM"
1,NC(=O)c1ccc(S(=O)(=O)N2CCSCC2)cc1,12.2%
2,COc1ccc(NC(=O)c2ccccc2CC[N+](=O)[O-])cc1,16.4%
3,C=CCn1c(O)c(C(C)=NCCc2ccccc2)c(=O)[nH]c1=O,1.74%
4,CC1(C)CC(=O)C=C(NCCN2CCNCC2)C1,-4.2%
5,CCCCC(=O)Nc1c(-c2ccc(OC)c(OC)c2)c(=O)c2ccccc2n1C,10.7%
6,Cc1ccc(CCNC(=O)CC(C)CC2=NS(=O)(=O)c3ccccc3N2)cc1 (centres unmarked),12.8%
7,Cc1cc(C)n(S(=O)(=O)c2ccc(Cl)c(Cl)c2Cl)n1,5.71%
8,CCc1cccc(C)c1NC(=O)Cc1ccsc1,6.6%
9,CC(C)C(=O)Nc1ccc(NC(=O)c2cccs2)cn1,2.04%
10,COc1cc(CNn2nnnc2N)ccc1OCc1c(Cl)cccc1Cl,-7.02%
11,CCCCCCCCCCS(=O)(=O)N/N=C/c1ccccc1OC,13.4%
12,COc1ccc(Cl)cc1NC(=O)CN(C)C(=O)CCCNC(=O)c1ccc(Cl)cc1,-5.75%
13,CCOC(=O)c1c(C)[nH]c(C(=O)COC(=O)c2ccccc2NC(=O)c2ccco2)c1C,14.8%
14,C=CCn1c(=O)c2ccccc2n2c(SCC(N)=O)nnc12,6.39%
15,CSc1cccc(NC(=O)Nc2ccccc2C(N)=O)c1,6.25%
16,C=CCN1C(=O)C(Cc2ccc(OCC)cc2)SC1=Nc1ccc(C(=O)O)cc1 (centres unmarked),0.342%
17,Cc1cccn2c(NC(=O)c3ccccc3F)c(-c3ccccc3)nc12,5%
18,CN1C(=O)c2oc3ccccc3c(=O)c2C1c1ccncc1 (centres unmarked),5.81%
19,O=C(Nc1ccc(NC(=O)c2ccco2)nc1)c1ccccn1,2.41%
20,C=CCN(c1ccccc1)S(=O)(=O)c1ccc(Cl)c(C(=O)OCC(=O)NCCCN2CCCC2=O)c1,19.9%
21,Cc1cc(-c2nnc(SCC(=O)Nc3ccc(F)cc3F)n2N)n[nH]1,12.9%
22,COc1ccc(C)cc1NC(=O)COC(=O)C1CC1,6.74%
23,O=C(CNC(=O)c1sc2ccccc2c1Cl)OCc1ccccc1,4.08%

row,SMILES,"hERG current change (%, negative = inhibition) at 1uM"
1,Cc1cc(C)cc(N2C(=O)CSC2c2cccs2)c1 (centres unmarked),8.82%
2,O=C(c1ccc(Oc2ccc([N+](=O)[O-])cc2)cc1)N1CCCCCC1,4.77%
3,Cc1cc(/C(N)=N/OC(=O)c2ccc(Cl)cc2)no1,9.68%
4,CC1CN(C(=O)CSc2nnc(-c3ccccc3)o2)CC(C)O1 (centres unmarked),11.2%
5,Cc1c(/C=C(\C#N)C(=O)NCc2ccccc2)cc(C#N)n1C,16.5%
6,O=C(Nc1ccc(S(=O)(=O)NCc2ccccc2)cc1)Nc1ccc2c(c1)OCO2,6.32%
7,COC(=O)N[C@H](CC(C)=O)c1ccccc1,13.6%
8,O=C1CCCC2=C1C(c1ccccc1)C1C(=O)c3ccccc3C1=N2 (centres unmarked),13.1%
9,Cc1ccc(-c2cc(C(F)F)n3ncc(C(=O)NN4CCCCC4)c3n2)cc1,14.8%
10,COc1ccc(C(=O)NC(Cc2c[nH]c3ccccc23)C(=O)O)cc1 (centres unmarked),11.5%
11,Oc1ccc(-c2nncn2-c2ccccc2)cc1,16.2%
12,CCOC(=O)C1CCN(c2c(NCc3ccc(C(=O)NCCC(C)C)cc3)c(=O)c2=O)CC1,4.68%
13,CCN(CC)S(=O)(=O)c1ccc(/C=C/C(=O)OCC#N)cc1,-5.89%
14,Cc1[nH]n(-c2ccccc2)c(=O)c1/C=N/N1C(=O)c2ccc3c4c(ccc(c24)C1=O)CC3,2.84%
15,COC(=O)c1ccc(-c2cc(C(=O)O)c3cc4c(cc3n2)OCCO4)cc1,0.418%
16,COc1ccccc1N1CCN(S(=O)(=O)c2c(C)[nH]c(C)c2C(=O)N2CCCCC2)CC1,15%
17,CCC(C)NC(=O)CSc1nc2ccccc2c(=O)n1Cc1ccc(OC)cc1 (centres unmarked),-2.46%
18,CCCCCn1c(CNC(=O)CC)nc2ccccc21,0.352%
19,COc1cc2cc(C(=O)Nc3ccccc3)c(N)nc2cc1OC,0.219%
20,CCN(c1ccc(NC(=O)COC(=O)CCc2nc3ccccc3n2-c2ccccc2)cc1)C(C)C,1.68%
21,CC(C)C(C(=O)Nc1nccs1)c1ccc(Cl)cc1 (centres unmarked),11.8%
22,COC(CNC(=O)C(=O)Nc1ccc2c(c1)N(S(=O)(=O)c1cccs1)CCC2)OC,13.9%
23,CCc1c(C)sc(NC(=O)OC)c1C(N)=O,13.4%

row,SMILES,"hERG current change (%, negative = inhibition) at 1uM"
1,Cc1ccc2oc(-c3ccco3)nc2c1,-4.7%
2,CCOc1ccc(C(CC(=O)O)NC(=O)COc2ccccc2OC)cc1OC (centres unmarked),13.3%
3,Cc1ccccc1COC(=O)CNC(=O)c1sc2ccccc2c1Cl,15%
4,Cc1nc2ccc(Cl)cc2nc1C,5.4%
5,COCCNC(=O)Cn1nc(Cc2ccncc2)c2ccccc2c1=O,11.2%
6,CCOc1cc(C2c3c(n[nH]c3C)C(=O)N2c2ccc(Br)cc2)ccc1O (centres unmarked),10.8%
7,Nc1ccccc1NC(=O)c1ccccc1N,6.04%
8,COc1ccccc1NC(=O)COC(=O)c1c[nH]c2ccccc12,9.21%
9,COc1ccc(N2CCN(C(=O)c3ccc(N4CCCCS4(=O)=O)cc3)CC2)cc1,10.7%
10,COC(=O)c1cnn(C(=O)c2cc(OC)ccc2Br)c1N,9.43%
11,Cc1ccc(C2CC(c3cccc(Cl)c3)n3nc(N)nc3N2)cc1 (centres unmarked),9.11%
12,Cc1cc(=O)oc2cc(OCC(=O)OCC(=O)Nc3ccc(C(N)=O)cc3)ccc12,4.02%
13,CCOC(=O)c1cc(C(=O)OCC)cc(-n2cc(O)c(C(=O)OCC)n2)c1,16.9%
14,O=C(O)c1cc([N+](=O)[O-])ccc1C(=O)Nc1ccccc1,10%
15,CCOC(=O)/C(C#N)=C/c1c(OCC)n(CC)c2ccccc12,11.2%
16,CCOC(=O)c1cc(=O)n(-c2ccc(Cl)cc2C)[nH]1,5.68%
17,COc1ccc(N(CC(=O)N2CCCCCC2)S(=O)(=O)c2c(C)[nH]c(=O)[nH]c2=O)cc1,3.01%
18,CSc1ccn(CCC(=O)O)c(=O)n1,10.9%
19,Nc1c(C(=O)C2CC2)sc2nc(-c3cccs3)cc(C(F)(F)F)c12,16.6%
20,O=C(NC1CCCCC1)C(c1cccs1)N(C(=O)c1ccco1)c1ccc2c(c1)OCCO2 (centres unmarked),8.1%
21,COc1ccccc1/C=C/C(=O)Oc1cccc2cccnc12.Cl,4.74%
22,COc1cccc(-c2ccc(C#N)c(SCC(=O)NCCc3ccccc3)n2)c1,7.28%
23,Cl.c1ccc2c3c([nH]c2c1)C1(CCCCC1)NCC3,11.5%

row,SMILES,"hERG current change (%, negative = inhibition) at 1uM"
1,CCn1c(SCC(=O)Nc2cc(C)on2)nnc1-c1ccco1,-1.47%
2,Cc1ccc(N2C(=O)CC(NCc3ccc4c(c3)OCO4)C2=O)cc1Cl (centres unmarked),-12.2%
3,CCCCc1nnc(NC(=O)c2nc3nccc(C)n3n2)s1,9.77%
4,O=C(N/C(=C\c1ccc(Br)cc1)C(=O)N1CCOCC1)c1ccco1,3.96%
5,CCOc1ccc(C=Nc2cccc3ncccc23)cc1,9.74%
6,O=C(O)C(=O)O.c1ccc(-c2ccccc2OCCN2CCCCC2)cc1,-4.98%
7,O=C(CSc1nnc(Cc2ccccc2)o1)NC1CC2CCC1C2 (centres unmarked),1.88%
8,COc1ccc(NC(=O)c2oc3ccccc3c2C)cn1,9.55%
9,Cc1ccc(S(=O)(=O)NC(=O)c2ccccc2F)cc1,1.23%
10,O=C(Nc1ncccc1O)c1ccc(OCC2CCCO2)cc1 (centres unmarked),5.2%
11,COc1ccc(NC(C)=O)cc1NS(=O)(=O)c1ccc2c(c1)OCCO2,15.8%
12,S=C(NCCCN1CCOCC1)N1CCN(c2ccccc2)CC1,1.19%
13,COc1ccccc1C(=O)NCC(=O)n1nc(C)cc1C,16.3%
14,CCn1c(SCC(=O)Nc2ccc(S(=O)(=O)Nc3ccccn3)cc2)nnc1-c1ccncc1,7.2%
15,Cc1ccc(-c2ccc(/C=N\n3cnnc3)o2)c(Br)c1,11.5%
16,CCC(C)(C)C1CCC(=NNS(=O)(=O)c2ccc(C)c([N+](=O)[O-])c2)CC1 (centres unmarked),10.6%
17,CCOC(=O)CSC1=C(C#N)C(c2sccc2C)CC(=O)N1 (centres unmarked),-12.7%
18,Cc1ccnc2nc(C(=O)OCC(=O)c3ccc(Cl)cc3)nn12,14%
19,C=CCOn1c(=O)c(-c2ccc(Br)cc2)[n+]([O-])c2ccccc21,11.7%
20,Cc1ccccc1NC(=O)COc1coc(CN2CCCc3ccccc32)cc1=O,2.18%
21,Cc1cc(C)c[n+](CC(=O)c2cc3ccccc3oc2=O)c1.[Br-],-6.34%
22,CCOC(=O)C1=C(CSc2nc(C)cc(C)c2C#N)OC(N)=C(C#N)C1c1ccccc1.CN(C)C=O (centres unmarked),4.86%
23,COc1ccc(CCC(C)N2CCC(CO)(Cc3ccccc3)CC2)cc1 (centres unmarked),-31.6%

# Reference: article PMC4336329 (PLoS ONE, 2015)
